Source: PubChem BioAssay AID686979 (National Center for Advancing Translational Sciences (NCATS), 2013)
Where “and” joins values, the source holds several entries; their conditions need not be identical. Equal values may be shown once. Hit rate of the full screen: of about 420,000 compounds, about 50,000 (12%) were called active. The shares of active, inactive and inconclusive entries below differ from those in the screen. Calls follow the shape of the dose curve; as a rule, active = well fitted inhibition curve with a large enough effect; inconclusive = small, poorly fitted or top-dose-only effect; inactive = flat fitted curve, though single readings scatter. A potency beside an inconclusive call is a rough fit, not a confirmed value.
% is scaled to controls: 0 for no effect and ±100 for the full control effect; potency is read from the fitted curve at half-maximal effect; tags tell the direction and shape of the fitted curve.

Experiment: qHTS for Inhibitors of human tyrosyl-DNA phosphodiesterase 1 (TDP1): qHTS in cells in presence of CPT; also: nearly all actives have a fitted effect of over 55% in size
Settings: chicken DT40 Tdp1-/-;hTDP1 cells + 20 nM CPT, ATP luminescence, 48 h; activity change, negative = growth inhibition: at 46.2 µM (top of the series) unless noted
Method in brief: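 Cell growth measured by CellTiter-Glo luminescence after a minimum 48 h, 37 C compound exposure with 20 nM CPT in Tdp1-knockout DT40 cells stably expressing hTDP1, seeded 400/well; qHTS titration format.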
In the case of `Cc1nc2ncnn2c(C)c1Cc1ccccc1Cl`, the Potency was “inactive”.
In the case of `COc1cccc(CN(C)C(=O)COc2ccc(C(=O)c3ccc(Cl)cc3)cc2)c1OC`, the Potency was inconclusive: 29.1 µM [inhibitor, single point].
In the case of `COc1ccc(C(C)(O)c2nc(-c3ccc4c(c3)OCO4)cs2)cc1` (stereo not given), the Potency was inconclusive: 14.6 µM [inhibitor, partial curve].
In the case of `COc1cccc(C2C=C(c3cccs3)Nc3ncnn32)c1OC` (stereo not given), the Potency was inconclusive: 16.4 µM [inhibitor, single point].
For `COc1cc(/C=N/NC(=O)Cc2cccs2)c([N+](=O)[O-])cc1OC`, the Potency was “inactive”.
In the case of `CCN(CC)C(=O)C1=C(C)N(Cc2ccc(C(C)(C)C)cc2)C(=O)C(CC(=O)NCc2cccc3ccccc23)C1` (stereo not given), the Potency was inconclusive: 29.1 µM [inhibitor, single point].
For `COc1ccc(CCN2C(=O)N[C@@H](C(C)C)C2=O)cc1`, the Potency was “inactive”.
For `COc1ccccc1NC(=O)C1CCCN(S(=O)(=O)c2cccc3nsnc23)C1` (stereo not given), the Potency was “inactive”.
With `CCOc1ccc(S(=O)(=O)N2CCN(Cc3ccc4c(c3)OCO4)CC2)cc1OCC` the Potency was inconclusive: 18.4 µM [inhibitor, single point].
With `O=C(CN1C2=NCCCN2c2ccccc21)c1ccc2c(c1)OCO2` the Potency was inconclusive: 23.1 µM [inhibitor, single point].
In the case of `Cc1ccc(CNC(=O)Cn2cc(C(=O)c3ccc(Cl)cc3)c(=O)c3ccc(C)nc32)cc1`, the Potency was active: 16.4 µM.
For `O=C(Nc1cc(Cl)cc(Cl)c1)C1CCCC1`, the Potency was inconclusive: 25.9 µM [inhibitor, single point].
In the case of `COc1ccc(C(=O)CC(=O)C(=O)Nc2ccc([N+](=O)[O-])cc2C)cc1`, the Potency was inconclusive: 29.1 µM [inhibitor, single point].
In the case of `CCCN(C(=O)c1ccc(-n2cncn2)c([N+](=O)[O-])c1)C1CCS(=O)(=O)C1` (stereo not given), the Potency was “inactive”.
In the case of `Nc1nonc1-n1nnc(C(=O)N/N=C/C2CC=CCC2)c1CSc1ccccc1` (stereo not given), the Potency was “inactive”.
With `CCNC(=O)NC(=O)COC(=O)c1cccc(S(=O)(=O)N2CC3(C)CC2CC(C)(C)C3)c1` (stereo not given) the Potency was “inactive”.
For `CN(C)CCCN1c2ccccc2Sc2ccc3ccccc3c21`, the Potency was inconclusive: 18.4 µM [inhibitor, single point].
With `CCc1ccc(C2=C(C)C(N3CCC(C(=O)NCc4ccc(C)o4)CC3)=NS2(=O)=O)cc1` the Potency was inconclusive: 23.1 µM [inhibitor, single point].
In the case of `CCCCNC(=O)[C@@H](c1ccccc1)N1Cc2ccccc2C1=O`, the Potency was “inactive”.
In the case of `Cc1onc(-c2ccccc2)c1CNC(=O)Nc1ccc(C(F)(F)F)cc1`, the Potency was inconclusive: 29.1 µM [inhibitor, single point].
For `Cc1ccc(S(=O)(=O)N2CCCc3cc(NC(=O)c4c(F)cccc4F)ccc32)cc1`, the Potency was inconclusive: 18.4 µM [inhibitor, single point] and inconclusive: 20.6 µM [inhibitor, single point].
In the case of `O=C(Nc1cc(S(=O)(=O)N2CCOCC2)ccc1N1CCCC1)c1ccccc1F`, the Potency was “inactive”.
In the case of `O=C(COc1ccccc1C(=O)Nc1ccccc1)c1ccc(F)cc1`, the activity change, negative = growth inhibition was inconclusive: -32.9% [inhibitor].
With `COc1ccc(Nc2c3c(nc4ccccc24)CCC3)cc1` the Potency was inconclusive: 25.9 µM [inhibitor, single point].
In the case of `O=C(Nc1nc(-c2ccc(Cl)cc2)cs1)c1cccnc1`, the Potency was inconclusive: 20.6 µM [inhibitor, single point].
With `COc1ccc(CN(CCC#N)C(=S)NC(=O)c2ccccc2)cc1` the Potency was inconclusive: 18.4 µM [inhibitor, single point].
With `O=C1N(Cc2cccnc2)C[C@@H]2C[C@@H](c3cccc(OC4CCCC4)c3)N3CCC[C@@]123` the Potency was inconclusive: 23.1 µM [inhibitor, single point].
With `COc1ccc(OC)c(C(c2nnnn2Cc2ccccc2)N2CCN(C3CCCCC3)CC2)c1` (stereo not given) the Potency was active: 18.4 µM.
For `CNc1oc(/C=C/c2cc(OC)c(OC)c(OC)c2)nc1C#N`, the Potency was inconclusive: 29.1 µM [inhibitor, single point].
With `COc1ccc(-c2[nH]ncc2/C=C(/C#N)C(=O)NC2CCCCCC2)cc1` the Potency was inconclusive: 23.1 µM [inhibitor, single point].
For `COC(=O)N/N=C/c1cc(N=Nc2ccccc2Cl)ccc1O`, the Potency was inconclusive: 29.1 µM [inhibitor, single point].
For `CC(C)n1c(N2CCN(C(=O)NCc3ccccc3)CC2)nc2ccccc21`, the Potency was inconclusive: 18.4 µM [inhibitor, partial curve].
With `COC(=O)c1ccccc1NC(=O)CCCOc1cc(=O)n(C)c2ccccc12` the Potency was inconclusive: 29.1 µM [inhibitor, single point].
In the case of `O=C(CCn1c(=O)c2cccn2c2cccnc21)N1CCN(c2ccc(Cl)cc2)CC1`, the Potency was active: 10.3 µM.
For `COc1ccccc1Oc1nc2c(c(=O)n(Cc3ccccc3F)c(=O)n2C)n1C`, the Potency was inconclusive: 18.4 µM [inhibitor, single point].
In the case of `COc1ccc2nc(N/C(N)=N/C(=S)Nc3c(C)cccc3C)nc(C)c2c1`, the Potency was active: 16.4 µM.
For `O=C(c1ccc(F)c(S(=O)(=O)N2CCOCC2)c1)N1CCN(c2ncccn2)CC1`, the Potency was “inactive”.
In the case of `O=c1cc(-c2ccccc2)[nH]c2ccccc12`, the Potency was active: 0.517 µM.
For `Cc1cccc(OCCCCn2c(C3CC(=O)N(c4ccc(C)cc4C)C3)nc3ccccc32)c1` (stereo not given), the Potency was inconclusive: 25.9 µM [inhibitor, single point].
With `Cc1cccc(NC(=O)C2CC2c2ccccc2)c1C` (stereo not given) the Potency was “inactive”.
With `CC1(C(=O)NCc2ccc(C(F)(F)F)cc2)CCN1Cc1cc2ccccc2o1` (stereo not given) the Potency was active: 20.6 µM.
In the case of `CCCCCC/C=C/c1ccc(OC)c([C@H]2[C@H]3C=CC[C@@H](C)[C@@H]3C(=O)N2Cc2ccccc2)c1`, the Potency was “inactive”.
In the case of `COc1ccccc1NS(=O)(=O)c1ccc2ccccc2c1`, the Potency was “inactive”.
For `COCCNc1nc(-c2cc(C)n(CCc3ccc(OC)cc3)c2C)cs1`, the Potency was active: 16.4 µM.
In the case of `O=Cc1c(SCCO)nc2ccccn2c1=O`, the Potency was “inactive”.
For `NNC(=O)c1[nH]c2ccc(Br)cc2c1-c1ccccc1`, the Potency was inconclusive: 25.9 µM [inhibitor, single point].
With `CCOc1cccc(CN2CCCC(N3CCN(c4cccc(Cl)c4)CC3)C2)c1O` (stereo not given) the Potency was “inactive”.
In the case of `COc1ccc(C(=O)Nc2ccnn2C2CCN(C3CCC3)CC2)cc1`, the Potency was “inactive”.
In the case of `Cc1ccc(C(=O)Nc2ccc(F)cc2)cc1S(=O)(=O)N1CCOCC1`, the Potency was inconclusive: 5.17 µM [inhibitor, single point].
With `Cc1ccc(-n2c(=O)c3ccc(C(=O)NCc4ccccc4Cl)cc3n(CC(N)=O)c2=O)cc1` the Potency was inconclusive: 5.8 µM [inhibitor, full curve].
With `Cc1ccccc1C(=O)Nc1ccc(C(=O)OCc2cc(=O)n3c4c(sc3n2)CCCC4)cc1` the Potency was inconclusive: 29.1 µM [inhibitor, single point].
In the case of `COc1ccccc1N1CCN(C(=O)c2ccc3c(=O)n(Cc4ccco4)c(=S)[nH]c3c2)CC1`, the Potency was inconclusive: 20.6 µM [inhibitor, single point].
With `CN(CC(=O)Nc1ccc(Br)cc1)S(=O)(=O)c1cccc2nsnc12` the Potency was inconclusive: 16.4 µM [inhibitor, single point].
In the case of `CSc1nc(=S)n(-c2cc(C)ccc2C)c(C)c1C(C)=O`, the Potency was “inactive”.
For `CCC(c1nnnn1C1CCCC1)N(Cc1cccs1)Cc1cc2cc(C)ccc2[nH]c1=O` (stereo not given), the Potency was active: 18.4 µM.
With `CCN(CC)S(=O)(=O)c1ccc(N2CCOCC2)c(NC(=O)C2=COCCO2)c1` the Potency was inconclusive: 23.1 µM [inhibitor, single point].
For `CCC1(C2CCN(Cc3c(C)[nH]c4ccccc34)CC2)NC(=O)N(Cc2ccc3c(c2)OCO3)C1=O` (stereo not given), the Potency was active: 23.1 µM.
In the case of `O=S(=O)(Nc1ccccn1)c1cc(Cl)ccc1Cl`, the Potency was “inactive”.
With `CCN1C(=S)N[C@@H](c2ccccc2)C(C(=O)OC)=C1C` the activity change, negative = growth inhibition was inconclusive: -48% [inhibitor].
For `O=C(NC(c1ccccc1)c1ccsc1)C1CCN(Cc2ccccc2)CC1` (stereo not given), the Potency was inconclusive: 13 µM [inhibitor, partial curve].
In the case of `N#CCCN(C(=O)COC(=O)c1ccc(Cl)nc1)c1ccc2c(c1)OCCO2`, the Potency was “inactive”.
In the case of `CCOc1ccc(CCNC(=O)C2CCCN(C(=O)N(C)C)C2)cc1OCC` (stereo not given), the Potency was “inactive”.
With `Cc1nc(-c2cccc(NC(=O)c3cc4cc(Br)ccc4oc3=O)c2)cs1` the Potency was inconclusive: 29.1 µM [inhibitor, single point].
With `CC1(C)C(=O)N(c2ccccc2)C1c1ccccc1O` (stereo not given) the Potency was inconclusive: 29.1 µM [inhibitor, single point].
With `COCCNC(=O)c1sc2ncn(CC(=O)Nc3ccc(C)c(Cl)c3)c(=O)c2c1C` the Potency was inconclusive: 16.4 µM [inhibitor, single point].
In the case of `O=C(C[C@H]1C/C=C\CC[C@@H](Cc2ccc(F)cc2)C(=O)O[C@@H](c2ccccc2)CNC1=O)N[C@@H](CO)Cc1ccccc1`, the Potency was “inactive”.
In the case of `COc1ccc(CC(=O)NC(C)c2ccc(Cl)c(Cl)c2)cc1S(=O)(=O)N1CCOCC1` (stereo not given), the Potency was inconclusive: 18.4 µM [inhibitor, single point].
In the case of `COc1cccc(/C(O)=C2/C(=O)C(=O)N(c3cc(C)on3)C2c2cccs2)c1` (stereo not given), the Potency was inconclusive: 29.1 µM [inhibitor, single point].
For `Cc1ccc(C2(c3ccc(C)cc3)CC2C(=O)NCc2cccnc2)cc1` (stereo not given), the Potency was “inactive”.
In the case of `COc1ccccc1N1CCN(C(=O)c2cccc(N3C(=O)NC4CC3(C)Oc3ccccc34)c2)CC1` (stereo not given), the Potency was inconclusive: 13 µM [inhibitor, partial curve, poor fit].
